Results: the supplement of paper PMC8728848
This is one part of the list.

Columns and labels:
Test in all cases: glycan array binding signal (z-score within array); higher = stronger binding
Conditions in all cases: glycan notation: IUPAC condensed, linker removed
GlcNAc(b1-4)GlcNAc = molecular target: GlcNAc(b1-4)GlcNAc
Method in brief: (§1)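 Glycan array binding is given as a within-array Z-score, which can be read as non-binding when negative. The arrays, 3228 of them, came from the Consortium for Functional Glycomics database and were retained only where the protein sequence was available. Z-scores were averaged across arrays of the same protein sequence at different concentrations or buffers and across linkers.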

[1] = molecular target: GlcNAc(b1-4)GlcNAc(b1-4)GlcNAc
Method in brief: as §1

[2] = molecular target: GlcNAc(b1-4)GlcNAc(b1-4)GlcNAc(b1-4)GlcNAc(b1-4)GlcNAc
Method in brief: as §1

[3] = molecular target: GlcNAc(b1-4)GlcNAc(b1-4)GlcNAc(b1-4)GlcNAc(b1-4)GlcNAc(b1-4)GlcNAc
Method in brief: as §1

[4] = molecular target: GlcNAc(b1-4)[GlcNAc(b1-6)]GalNAc
Method in brief: as §1

[5] = molecular target: GlcNAc(b1-6)Gal(b1-4)GlcNAc
Method in brief: as §1

GlcNAc(b1-6)GalNAc = molecular target: GlcNAc(b1-6)GalNAc
Method in brief: as §1

GlcNAc3Prop(b1-4)GlcNAc = molecular target: GlcNAc3Prop(b1-4)GlcNAc
Method in brief: as §1

[6] = molecular target: GlcNAc6S(b1-3)Gal(b1-4)GlcNAc
Method in brief: as §1

Kdn(a2-3)Gal(b1-3)GalNAc = molecular target: Kdn(a2-3)Gal(b1-3)GalNAc
Method in brief: as §1

Kdn(a2-3)Gal(b1-3)GlcNAc = molecular target: Kdn(a2-3)Gal(b1-3)GlcNAc
Method in brief: as §1

Kdn(a2-3)Gal(b1-4)Glc = molecular target: Kdn(a2-3)Gal(b1-4)Glc
Method in brief: as §1

Kdn(a2-3)Gal(b1-4)GlcNAc = molecular target: Kdn(a2-3)Gal(b1-4)GlcNAc
Method in brief: as §1

[7] = molecular target: Kdn(a2-3)Gal(b1-4)[Fuc(a1-3)]GlcNAc
Method in brief: as §1

Kdn(a2-6)Gal(b1-4)GlcNAc = molecular target: Kdn(a2-6)Gal(b1-4)GlcNAc
Method in brief: as §1

[8] = molecular target: Man(a1-2)Man(a1-2)Man(a1-3)Man
Method in brief: as §1

[9] = molecular target: Man(a1-2)Man(a1-2)Man(a1-6)[Man(a1-3)]Man
Method in brief: as §1

Man(a1-2)Man(a1-3)Man = molecular target: Man(a1-2)Man(a1-3)Man
Method in brief: as §1

[10] = molecular target: Man(a1-2)Man(a1-3)[Man(a1-2)Man(a1-6)]Man
Method in brief: as §1

[11] = molecular target: Man(a1-2)Man(a1-3)[Man(a1-2)Man(a1-6)]Man(a1-6)[Man(a1-2)Man(a1-2)Man(a1-3)]Man
Method in brief: as §1

[12] = molecular target: Man(a1-2)Man(a1-3)[Man(a1-2)Man(a1-6)]Man(a1-6)[Man(a1-2)Man(a1-2)Man(a1-3)]Man(b1-4)GlcNAc(b1-4)GlcNAc
Method in brief: as §1

[13] = molecular target: Man(a1-2)Man(a1-3)[Man(a1-6)]Man(a1-6)[Man(a1-2)Man(a1-3)]Man(b1-4)GlcNAc(b1-4)GlcNAc
Method in brief: as §1

[14] = molecular target: Man(a1-2)Man(a1-6)[Man(a1-3)]Man(a1-6)[Man(a1-2)Man(a1-2)Man(a1-3)]Man
Method in brief: as §1

[15] = molecular target: Man(a1-2)Man(a1-6)[Man(a1-3)]Man(a1-6)[Man(a1-2)Man(a1-2)Man(a1-3)]Man(b1-4)GlcNAc(b1-4)GlcNAc
Method in brief: as §1

Man(a1-3)[Man(a1-6)]Man = molecular target: Man(a1-3)[Man(a1-6)]Man
Method in brief: as §1

[16] = molecular target: Man(a1-3)[Man(a1-6)]Man(a1-6)[Man(a1-2)Man(a1-3)]Man(b1-4)GlcNAc(b1-4)GlcNAc
Method in brief: as §1

[17] = molecular target: Man(a1-3)[Man(a1-6)]Man(a1-6)[Man(a1-3)]Man
Method in brief: as §1

[18] = molecular target: Man(a1-3)[Man(a1-6)]Man(a1-6)[Man(a1-3)]Man(b1-4)GlcNAc(b1-4)GlcNAc
Method in brief: as §1

[19] = molecular target: Man(a1-3)[Man(a1-6)]Man(b1-4)GlcNAc(b1-4)GlcNAc
Method in brief: as §1

Man(a1-6)Man = molecular target: Man(a1-6)Man
Method in brief: as §1

Man(b1-4)GlcNAc = molecular target: Man(b1-4)GlcNAc
Method in brief: as §1

Neu5Ac(a2-3)Gal = molecular target: Neu5Ac(a2-3)Gal
Method in brief: as §1

[20] = molecular target: Neu5Ac(a2-3)Gal(b1-3)GalNAc
Method in brief: as §1

[21] = molecular target: Neu5Ac(a2-3)Gal(b1-3)GalNAc(b1-3)Gal(a1-4)Gal(b1-4)Glc
Method in brief: as §1

[22] = molecular target: Neu5Ac(a2-3)Gal(b1-3)GalNAc(b1-3)Gal(b1-4)GlcNAc
Method in brief: as §1

[23] = molecular target: Neu5Ac(a2-3)Gal(b1-3)GalNAc(b1-4)[Neu5Ac(a2-3)]Gal(b1-4)Glc
Method in brief: as §1

[24] = molecular target: Neu5Ac(a2-3)Gal(b1-3)GalNAc6S
Method in brief: as §1

[25] = molecular target: Neu5Ac(a2-3)Gal(b1-3)GlcNAc
Method in brief: as §1

[26] = molecular target: Neu5Ac(a2-3)Gal(b1-3)GlcNAc(b1-3)Gal(b1-3)GlcNAc
Method in brief: as §1

[27] = molecular target: Neu5Ac(a2-3)Gal(b1-3)GlcNAc6S
Method in brief: as §1

[28] = molecular target: Neu5Ac(a2-3)Gal(b1-3)[Fuc(a1-4)]GlcNAc
Method in brief: as §1

[29] = molecular target: Neu5Ac(a2-3)Gal(b1-3)[Fuc(a1-4)]GlcNAc(b1-3)Gal(b1-3)[Fuc(a1-4)]GlcNAc
Method in brief: as §1

[30] = molecular target: Neu5Ac(a2-3)Gal(b1-3)[Fuc(a1-4)]GlcNAc(b1-3)Gal(b1-4)[Fuc(a1-3)]GlcNAc
Method in brief: as §1

[31] = molecular target: Neu5Ac(a2-3)Gal(b1-3)[Neu5Ac(a2-3)Gal(b1-4)]GlcNAc
Method in brief: as §1

[32] = molecular target: Neu5Ac(a2-3)Gal(b1-3)[Neu5Ac(a2-6)]GalNAc
Method in brief: as §1

Neu5Ac(a2-3)Gal(b1-4)Glc = molecular target: Neu5Ac(a2-3)Gal(b1-4)Glc
Method in brief: as §1

[33] = molecular target: Neu5Ac(a2-3)Gal(b1-4)GlcNAc
Method in brief: as §1

[34] = molecular target: Neu5Ac(a2-3)Gal(b1-4)GlcNAc(b1-2)Man(a1-3)[GlcNAc(b1-2)Man(b1-4)GlcNAc(b1-2)Man(a1-6)]Man(b1-4)GlcNAc(b1-4)GlcNAc
Method in brief: as §1

[35] = molecular target: Neu5Ac(a2-3)Gal(b1-4)GlcNAc(b1-2)Man(a1-3)[Neu5Ac(a2-6)Gal(b1-4)GlcNAc(b1-2)Man(a1-6)]Man(b1-4)GlcNAc(b1-4)GlcNAc
Method in brief: as §1

[36] = molecular target: Neu5Ac(a2-3)Gal(b1-4)GlcNAc(b1-3)Gal(b1-3)GlcNAc
Method in brief: as §1

[37] = molecular target: Neu5Ac(a2-3)Gal(b1-4)GlcNAc(b1-3)Gal(b1-4)GlcNAc
Method in brief: as §1

[38] = molecular target: Neu5Ac(a2-3)Gal(b1-4)GlcNAc(b1-3)Gal(b1-4)GlcNAc(b1-3)Gal(b1-4)GlcNAc
Method in brief: as §1

[39] = molecular target: Neu5Ac(a2-3)Gal(b1-4)GlcNAc(b1-3)Gal(b1-4)[Fuc(a1-3)]GlcNAc
Method in brief: as §1

[40] = molecular target: Neu5Ac(a2-3)Gal(b1-4)GlcNAc(b1-3)GalNAc
Method in brief: as §1

[41] = molecular target: Neu5Ac(a2-3)Gal(b1-4)GlcNAc(b1-6)[Gal(b1-3)]GalNAc
Method in brief: as §1

[42] = molecular target: Neu5Ac(a2-3)Gal(b1-4)GlcNAc(b1-6)[Neu5Ac(a2-3)Gal(b1-3)]GalNAc
Method in brief: as §1

[43] = molecular target: Neu5Ac(a2-3)Gal(b1-4)GlcNAc6S
Method in brief: as §1

B1: Flo5 (Saccharomyces cerevisiae), P38894 (protein)
chain: MGSSHHHHHHSSGLVPRGSHMSGATEACLPAGQRKSGMNINFYQYSLKDSSTYSNAAYMAYGYASKTKLGSVGGQTDISIDYNIPCVSSSGTFPCPQEDSYGNWGCKGMGACSNSQGIAYWSTDLFGFYTTPTNVTLEMTGYFLPPQTGSYTFSFATVDDSAILSVGGSIAFECCAQEQPPITSTNFTINGIKPWDGSLPDNITGTVYMYAGYYYPLKVVYSNAVSWGTLPISVELPDGTTVSDNFEGYVYSFDDDLSQSNCTIPDPSIH
For B1, the “glycan array binding signal (z-score)” value (GlcNAc(b1-4)GlcNAc) was -0.172, the “glycan array binding signal (z-score)” value [1] was 0.412 and the “glycan array binding signal (z-score)” value [2] was -0.163. For the same binder, the “glycan array binding signal (z-score)” value [3] was -0.246, the “glycan array binding signal (z-score)” value [4] was -0.139 and the “glycan array binding signal (z-score)” value [5] was -0.098. For the same binder, the “glycan array binding signal (z-score)” value (GlcNAc(b1-6)GalNAc) was -0.122, the “glycan array binding signal (z-score)” value (GlcNAc3Prop(b1-4)GlcNAc) was -0.306 and the “glycan array binding signal (z-score)” value [6] was -0.209. The “glycan array binding signal (z-score)” value (Kdn(a2-3)Gal(b1-3)GalNAc) was -0.129, the “glycan array binding signal (z-score)” value (Kdn(a2-3)Gal(b1-3)GlcNAc) was -0.178 and the “glycan array binding signal (z-score)” value (Kdn(a2-3)Gal(b1-4)Glc) was -0.176. The “glycan array binding signal (z-score)” value (Kdn(a2-3)Gal(b1-4)GlcNAc) was -0.231, the “glycan array binding signal (z-score)” value [7] was -0.074 and the “glycan array binding signal (z-score)” value (Kdn(a2-6)Gal(b1-4)GlcNAc) was -0.042. For the same binder, the “glycan array binding signal (z-score)” value [8] was 6.07, the “glycan array binding signal (z-score)” value [9] was -0.079 and the “glycan array binding signal (z-score)” value (Man(a1-2)Man(a1-3)Man) was -0.101. The “glycan array binding signal (z-score)” value [10] was -0.141, the “glycan array binding signal (z-score)” value [11] was -0.064 and the “glycan array binding signal (z-score)” value [12] was -0.127. For the same binder, the “glycan array binding signal (z-score)” value [13] was -0.127, the “glycan array binding signal (z-score)” value [14] was -0.132 and the “glycan array binding signal (z-score)” value [15] was -0.205. For the same binder, the “glycan array binding signal (z-score)” value (Man(a1-3)[Man(a1-6)]Man) was 0.724, the “glycan array binding signal (z-score)” value [16] was -0.177 and the “glycan array binding signal (z-score)” value [17] was 3.11. The “glycan array binding signal (z-score)” value [18] was 0.132, the “glycan array binding signal (z-score)” value [19] was -0.11 and the “glycan array binding signal (z-score)” value (Man(a1-6)Man) was -0.114. The “glycan array binding signal (z-score)” value (Man(b1-4)GlcNAc) was -0.19, the “glycan array binding signal (z-score)” value (Neu5Ac(a2-3)Gal) was -0.181 and the “glycan array binding signal (z-score)” value [20] was -0.203. The “glycan array binding signal (z-score)” value [21] was -0.126, the “glycan array binding signal (z-score)” value [22] was -0.218 and the “glycan array binding signal (z-score)” value [23] was -0.152. The “glycan array binding signal (z-score)” value [24] was 0.434, the “glycan array binding signal (z-score)” value [25] was -0.262 and the “glycan array binding signal (z-score)” value [26] was 0.525. For the same binder, the “glycan array binding signal (z-score)” value [27] was -0.161, the “glycan array binding signal (z-score)” value [28] was -0.153 and the “glycan array binding signal (z-score)” value [29] was -0.223. The “glycan array binding signal (z-score)” value [30] was -0.286, the “glycan array binding signal (z-score)” value [31] was -0.169 and the “glycan array binding signal (z-score)” value [32] was -0.165. For the same binder, the “glycan array binding signal (z-score)” value (Neu5Ac(a2-3)Gal(b1-4)Glc) was -0.16, the “glycan array binding signal (z-score)” value [33] was -0.167 and the “glycan array binding signal (z-score)” value [34] was -0.19. For the same binder, the “glycan array binding signal (z-score)” value [35] was -0.182, the “glycan array binding signal (z-score)” value [36] was -0.073 and the “glycan array binding signal (z-score)” value [37] was -0.114. For the same binder, the “glycan array binding signal (z-score)” value [38] was 0.027, the “glycan array binding signal (z-score)” value [39] was -0.133 and the “glycan array binding signal (z-score)” value [40] was 0.01. For the same binder, the “glycan array binding signal (z-score)” value [41] was -0.196, the “glycan array binding signal (z-score)” value [42] was -0.244 and the “glycan array binding signal (z-score)” value [43] was -0.131.
